No constants are given. Whether binding was seen depends on the method and setting. Binding seen in cells or lysates may run through a third protein. Some binding calls cover weakened binding; strength is not graded here. Where a sequence is shown, tags or fusion partners need not be part of it.
Key:
Myc-EHD1 (human) [1] = biological target: T1, Myc-EHD1 (human) (UniProt Q9H4M9); assay: co-IP; HEK 293T co-transfected with one Myc-tagged and one GFP-tagged construct (2.5 μg each); lysis in 1% Triton X-100, 150 mM NaCl, 50 mM Tris-HCl pH 7.6; lysates rocked overnight at 4°C; 1 mg lysate, IP with 3 μg anti-Myc (9E10), anti-GFP immunoblot
T1 sequence: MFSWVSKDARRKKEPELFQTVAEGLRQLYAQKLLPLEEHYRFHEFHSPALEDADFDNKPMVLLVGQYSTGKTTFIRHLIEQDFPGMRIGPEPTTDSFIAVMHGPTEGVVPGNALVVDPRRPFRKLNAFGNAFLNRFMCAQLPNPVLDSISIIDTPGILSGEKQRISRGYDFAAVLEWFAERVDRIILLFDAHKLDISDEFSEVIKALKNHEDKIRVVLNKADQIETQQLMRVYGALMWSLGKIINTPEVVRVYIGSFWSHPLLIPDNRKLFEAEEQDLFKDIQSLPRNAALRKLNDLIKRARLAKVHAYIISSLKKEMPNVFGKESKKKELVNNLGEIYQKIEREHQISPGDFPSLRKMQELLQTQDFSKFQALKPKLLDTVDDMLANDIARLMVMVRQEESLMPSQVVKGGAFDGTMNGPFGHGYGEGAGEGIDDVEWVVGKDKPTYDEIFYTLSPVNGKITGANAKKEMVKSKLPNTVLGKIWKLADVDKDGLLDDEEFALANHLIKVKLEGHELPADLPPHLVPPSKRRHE

Myc-EHD3 (human) = biological target: T2, Myc-EHD3 (human) (UniProt Q9NZN3); assay: as above
T2 sequence: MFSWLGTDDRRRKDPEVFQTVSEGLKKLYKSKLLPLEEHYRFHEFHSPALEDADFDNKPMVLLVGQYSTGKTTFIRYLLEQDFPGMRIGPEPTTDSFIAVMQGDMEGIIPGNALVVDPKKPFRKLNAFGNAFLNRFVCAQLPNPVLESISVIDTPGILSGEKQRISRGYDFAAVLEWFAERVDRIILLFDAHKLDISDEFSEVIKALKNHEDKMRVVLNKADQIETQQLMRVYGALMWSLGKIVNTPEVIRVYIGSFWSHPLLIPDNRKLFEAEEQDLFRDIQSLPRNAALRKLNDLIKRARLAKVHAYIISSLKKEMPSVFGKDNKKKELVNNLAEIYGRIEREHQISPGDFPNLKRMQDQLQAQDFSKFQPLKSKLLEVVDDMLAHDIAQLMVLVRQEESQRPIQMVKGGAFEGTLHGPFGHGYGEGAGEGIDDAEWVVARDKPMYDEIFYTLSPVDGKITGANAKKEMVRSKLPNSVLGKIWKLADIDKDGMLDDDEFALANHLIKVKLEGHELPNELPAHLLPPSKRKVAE

Myc-EHD4 (human) [2] = biological target: T3, Myc-EHD4 (human) (UniProt Q9H223); assay: as above
T3 sequence: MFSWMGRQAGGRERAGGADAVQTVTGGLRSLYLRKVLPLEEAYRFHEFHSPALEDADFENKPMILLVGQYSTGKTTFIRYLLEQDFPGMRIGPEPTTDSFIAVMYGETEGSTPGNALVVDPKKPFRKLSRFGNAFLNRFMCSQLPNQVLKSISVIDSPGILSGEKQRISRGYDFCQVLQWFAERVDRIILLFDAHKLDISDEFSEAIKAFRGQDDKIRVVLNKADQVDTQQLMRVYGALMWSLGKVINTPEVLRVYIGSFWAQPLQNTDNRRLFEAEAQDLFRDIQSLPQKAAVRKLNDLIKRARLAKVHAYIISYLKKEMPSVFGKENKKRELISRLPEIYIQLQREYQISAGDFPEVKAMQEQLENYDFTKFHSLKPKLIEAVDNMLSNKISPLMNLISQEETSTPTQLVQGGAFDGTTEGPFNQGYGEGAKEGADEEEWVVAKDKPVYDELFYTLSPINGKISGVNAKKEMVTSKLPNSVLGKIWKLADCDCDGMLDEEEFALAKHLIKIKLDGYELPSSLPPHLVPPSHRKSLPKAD

Myc-EHD1 (human) [3] = biological target: T1, Myc-EHD1 (human); assay: co-IP; HeLa cells, Myc- and GFP-tagged EHD proteins; data not shown
Myc-EHD4 (human) [4] = biological target: T3, Myc-EHD4 (human); assay: as above
Myc-EHD2 (human) [5] = biological target: T4, Myc-EHD2 (human) (UniProt Q9NZN4); assay: co-IP; HEK 293T co-transfected with one Myc-tagged and one GFP-tagged construct (2.5 μg each); lysis in 1% Triton X-100, 150 mM NaCl, 50 mM Tris-HCl pH 7.6; lysates rocked overnight at 4°C; 1 mg lysate, IP with 3 μg anti-Myc (9E10), anti-GFP immunoblot
T4 sequence: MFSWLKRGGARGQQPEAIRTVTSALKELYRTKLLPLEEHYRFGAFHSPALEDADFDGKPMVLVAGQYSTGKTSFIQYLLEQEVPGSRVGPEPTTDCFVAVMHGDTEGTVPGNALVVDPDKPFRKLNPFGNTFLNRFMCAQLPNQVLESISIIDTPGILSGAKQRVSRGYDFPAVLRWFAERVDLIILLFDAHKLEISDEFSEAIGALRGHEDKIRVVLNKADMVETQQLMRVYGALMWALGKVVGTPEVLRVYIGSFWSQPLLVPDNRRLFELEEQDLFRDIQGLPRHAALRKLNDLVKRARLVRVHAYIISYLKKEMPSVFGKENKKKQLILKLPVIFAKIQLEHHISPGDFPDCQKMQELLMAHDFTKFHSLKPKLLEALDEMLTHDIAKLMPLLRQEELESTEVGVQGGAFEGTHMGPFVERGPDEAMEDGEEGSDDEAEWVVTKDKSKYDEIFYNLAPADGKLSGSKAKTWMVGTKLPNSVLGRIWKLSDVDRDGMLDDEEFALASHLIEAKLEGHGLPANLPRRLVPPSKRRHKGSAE

Myc-EHD2 (human) [6] = biological target: T4, Myc-EHD2 (human); assay: co-IP; HeLa cells, Myc- and GFP-tagged EHD proteins; data not shown

binding (Myc-EHD1 (human) [1])	binding (Myc-EHD3 (human))	binding (Myc-EHD4 (human) [2])	binding (Myc-EHD1 (human) [3])	binding (Myc-EHD4 (human) [4])	binding (Myc-EHD2 (human) [5])	binding (Myc-EHD2 (human) [6])	Binder
binds	binds	binds	binds	binds			EHD1-GFP (protein, UniProt Q9H4M9 1-534) MFSWVSKDARRKKEPELFQTVAEGLRQLYAQKLLPLEEHYRFHEFHSPALEDADFDNKPMVLLVGQYSTGKTTFIRHLIEQDFPGMRIGPEPTTDSFIAVMHGPTEGVVPGNALVVDPRRPFRKLNAFGNAFLNRFMCAQLPNPVLDSISIIDTPGILSGEKQRISRGYDFAAVLEWFAERVDRIILLFDAHKLDISDEFSEVIKALKNHEDKIRVVLNKADQIETQQLMRVYGALMWSLGKIINTPEVVRVYIGSFWSHPLLIPDNRKLFEAEEQDLFKDIQSLPRNAALRKLNDLIKRARLAKVHAYIISSLKKEMPNVFGKESKKKELVNNLGEIYQKIEREHQISPGDFPSLRKMQELLQTQDFSKFQALKPKLLDTVDDMLANDIARLMVMVRQEESLMPSQVVKGGAFDGTMNGPFGHGYGEGAGEGIDDVEWVVGKDKPTYDEIFYTLSPVNGKITGANAKKEMVKSKLPNTVLGKIWKLADVDKDGLLDDEEFALANHLIKVKLEGHELPADLPPHLVPPSKRRHE
	binds weakly	binds weakly		binds weakly	binds	binds	EHD2-GFP (protein, UniProt Q9NZN4 1-543) MFSWLKRGGARGQQPEAIRTVTSALKELYRTKLLPLEEHYRFGAFHSPALEDADFDGKPMVLVAGQYSTGKTSFIQYLLEQEVPGSRVGPEPTTDCFVAVMHGDTEGTVPGNALVVDPDKPFRKLNPFGNTFLNRFMCAQLPNQVLESISIIDTPGILSGAKQRVSRGYDFPAVLRWFAERVDLIILLFDAHKLEISDEFSEAIGALRGHEDKIRVVLNKADMVETQQLMRVYGALMWALGKVVGTPEVLRVYIGSFWSQPLLVPDNRRLFELEEQDLFRDIQGLPRHAALRKLNDLVKRARLVRVHAYIISYLKKEMPSVFGKENKKKQLILKLPVIFAKIQLEHHISPGDFPDCQKMQELLMAHDFTKFHSLKPKLLEALDEMLTHDIAKLMPLLRQEELESTEVGVQGGAFEGTHMGPFVERGPDEAMEDGEEGSDDEAEWVVTKDKSKYDEIFYNLAPADGKLSGSKAKTWMVGTKLPNSVLGRIWKLSDVDRDGMLDDEEFALASHLIEAKLEGHGLPANLPRRLVPPSKRRHKGSAE
binds	binds	binds	binds	binds	binds weakly	binds weakly	EHD3-GFP (protein, UniProt Q9NZN3-1 1-535) MFSWLGTDDRRRKDPEVFQTVSEGLKKLYKSKLLPLEEHYRFHEFHSPALEDADFDNKPMVLLVGQYSTGKTTFIRYLLEQDFPGMRIGPEPTTDSFIAVMQGDMEGIIPGNALVVDPKKPFRKLNAFGNAFLNRFVCAQLPNPVLESISVIDTPGILSGEKQRISRGYDFAAVLEWFAERVDRIILLFDAHKLDISDEFSEVIKALKNHEDKMRVVLNKADQIETQQLMRVYGALMWSLGKIVNTPEVIRVYIGSFWSHPLLIPDNRKLFEAEEQDLFRDIQSLPRNAALRKLNDLIKRARLAKVHAYIISSLKKEMPSVFGKDNKKKELVNNLAEIYGRIEREHQISPGDFPNLKRMQDQLQAQDFSKFQPLKSKLLEVVDDMLAHDIAQLMVLVRQEESQRPIQMVKGGAFEGTLHGPFGHGYGEGAGEGIDDAEWVVARDKPMYDEIFYTLSPVDGKITGANAKKEMVRSKLPNSVLGKIWKLADIDKDGMLDDDEFALANHLIKVKLEGHELPNELPAHLLPPSKRKVAE
binds	binds	binds	binds	binds	binds weakly	binds weakly	EHD4-GFP (protein, UniProt Q9H223 1-541) MFSWMGRQAGGRERAGGADAVQTVTGGLRSLYLRKVLPLEEAYRFHEFHSPALEDADFENKPMILLVGQYSTGKTTFIRYLLEQDFPGMRIGPEPTTDSFIAVMYGETEGSTPGNALVVDPKKPFRKLSRFGNAFLNRFMCSQLPNQVLKSISVIDSPGILSGEKQRISRGYDFCQVLQWFAERVDRIILLFDAHKLDISDEFSEAIKAFRGQDDKIRVVLNKADQVDTQQLMRVYGALMWSLGKVINTPEVLRVYIGSFWAQPLQNTDNRRLFEAEAQDLFRDIQSLPQKAAVRKLNDLIKRARLAKVHAYIISYLKKEMPSVFGKENKKRELISRLPEIYIQLQREYQISAGDFPEVKAMQEQLENYDFTKFHSLKPKLIEAVDNMLSNKISPLMNLISQEETSTPTQLVQGGAFDGTTEGPFNQGYGEGAKEGADEEEWVVAKDKPVYDELFYTLSPINGKISGVNAKKEMVTSKLPNSVLGKIWKLADCDCDGMLDEEEFALAKHLIKIKLDGYELPSSLPPHLVPPSHRKSLPKAD

— article PMC1793994
